Measured values from the supplement of paper PMC10126150.
Sequences with one replicate were seen in a single cluster, so their values are uncertain.

tested on: ATP; experiment: switch fluorescence ratio, 500 uM ATP over buffer (Cy3 cluster intensity, sum of 5 cycles each) (fold (ratio)); higher = stronger signal-on switching upon ATP binding; sequences stand for … in TCGTCGGCAGCGTCAGATGTGTATAAGAGACAGTTTTTTTTTTTTTTTTTTTTTTTTT…TC; details: aptamer strand: ATP DNA aptamer (quencher-CACCTGGGGGAGTATTGCGGAGGAAGG + anchor), 100 nM annealed; ATP concentration: 500 uM; one replicate
Procedure, shortened: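 Switching-strand clusters labelled with Cy3 on a modified Illumina MiSeq flow-cell were annealed to 100 nM quencher-labelled ATP aptamer, imaged in selection buffer, and re-imaged after 15 min with 500 uM ATP at 22 °C. This was done over five cycles with NaOH stripping and re-annealing in between. The fluorescence ratio is summed target-cycle over summed buffer-cycle Cy3 intensity per cluster, averaged per switch-domain sequence, excluding clusters outside 100-1000 RFU.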
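Further: ATP exposure 15 min at 22 °C before imaging.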

Sequence | switch fluorescence ratio
CGAGACGGTT | 1.06
CGAGACTTTT | 1.04
CGAGAGAATT | 1.1
CGAGAGACGC | 1.01
CGAGAGCCCC | 1
CGAGAGCGGC | 1.1
CGAGCAGGGG | 1.13
CGAGCATAAT | 1.84
CGAGCATGGG | 1.13
CGAGCATGGT | 1.19
CGAGCCTTCA | 1.36
CGAGCGCAGA | 1.12
CGAGCGGTTT | 1.01
CGAGGGAGGA | 1.03
CGAGGGCTGT | 0.985
CGAGGGGCCG | 0.932
CGAGGTAGAC | 1.5
CGAGGTCGTA | 0.975
CGAGGTGTAA | 0.948
CGAGGTTCTT | 1.02
CGAGGTTGGA | 1.05
CGAGTATCGA | 0.975
CGAGTCAATA | 4.22
CGAGTCCAAC | 0.997
CGAGTCGGTG | 1.02
CGAGTCTGGG | 1.02

Sequence | switch fluorescence ratio
CGAGTGACCT | 1.09
CGAGTGGACC | 0.946
CGAGTGTGAT | 0.993
CGAGTTCCGG | 1.04
CGAGTTTACG | 1.03
CGATAACGTT | 0.987
CGATAAGGCT | 0.989
CGATAATTAA | 0.988
CGATACCGAC | 1.25
CGATAGCCGG | 1.01
CGATATAGA | 1.03
CGATATCGAA | 0.977
CGATATTAGG | 1.01
CGATATTTTG | 0.948
CGATCAGAGT | 1.05
CGATCATATG | 0.986
CGATCATCTA | 0.982
CGATCCTTCT | 1.06
CGATCGGGTT | 1.02
CGATCTGAGT | 0.986
CGATGGCCTG | 1.03
CGATGTGGA | 1.05
CGATTAACGG | 1.01
CGATTAATAA | 1.05
CGATTATTGT | 1.02
CGATTCAGAA | 1.05

Sequence | switch fluorescence ratio
CGATTCCATC | 0.975
CGATTGCCGA | 0.983
CGATTGGCGT | 1.02
CGATTGTGAG | 1.03
CGATTTATTT | 0.924
CGATTTTG | 1
CGATTTTTCT | 1.07
CGCAAAAGAA | 0.984
CGCAACACGG | 4.07
CGCAACCTAG | 2.14
CGCAAGGGGT | 1.46
CGCACCACG | 1.11
CGCACGTTAC | 2.79
CGCACTTACT | 3.86
CGCAGATAGA | 1.03
CGCAGCAGCC | 3.45
CGCAGCCCCG | 1.2
CGCAGCCGC | 1.22
CGCAGCGAGG | 1.38
CGCAGCGATT | 1.82
CGCAGCTGAG | 1.19
CGCAGCTTTT | 1.79
CGCAGGACCT | 1.44
CGCAGGGGCC | 1.07
CGCAGTCGAA | 1.04
CGCAGTGCGG | 1.04

Sequence | switch fluorescence ratio
CGCATATTCA | 1.45
CGCATCCGCC | 1.73
CGCATCCTTA | 1.06
CGCATGGATC | 1.08
CGCCAAAGTA | 1.01
CGCCAAGCGG | 1.01
CGCCAAGTTC | 1.03
CGCCACGGAT | 0.979
CGCCATAAGT | 0.976
CGCCATCTGA | 0.99
CGCCCTGCG | 1.01
CGCCCTGTGT | 1.29
CGCCCTTGTA | 0.942
CGCCGAGGAT | 1.05
CGCCGATGCA | 1.02
CGCCGCAGTT | 5.37
CGCCGGACGT | 1.01
CGCCGGTACT | 1.16
CGCCGGTCAA | 1.12
CGCCGGTG | 1.08
CGCCGTGTAA | 0.974
CGCCTAGACT | 1.11
CGCCTAGGAT | 1.04
CGCCTATTGG | 0.992
CGCCTGGGGG | 1.12
CGCCTGTCAA | 1.27

Sequence | switch fluorescence ratio
CGCCTTATTA | 0.93
CGCCTTGCAA | 2.49
CGCGAATAGG | 1.03
CGCGAGCGGG | 1.05
CGCGATGCCA | 1.1
CGCGATGTGT | 1.06
CGCGCCTATG | 1.03
CGCGCCTTGC | 1.15
CGCGCCTTTC | 1.27
CGCGCGGCCG | 1.1
CGCGCGTTCA | 0.967
CGCGGCGTGC | 1.1
CGCGGGCCAG | 0.99
CGCGGGGGCT | 0.989
CGCGGTTCGA | 1.04
CGCGGTTTGG | 1.03
CGCGTATGTG | 1.02
CGCGTCTGGT | 0.996
CGCGTGCACA | 1.11
CGCGTTCGG | 1.03
CGCTAACAAT | 1.05
CGCTAAGTTA | 1.02
CGCTAATCTT | 1.08
CGCTAATGCT | 2.54
CGCTACCTCA | 1.56
CGCTAGAATG | 1.06

Sequence | switch fluorescence ratio
CGCTAGGCGC | 0.988
CGCTCAAAG | 1.02
CGCTCATCTC | 1.41
CGCTCGGAAA | 1.01
CGCTCTACAG | 1.02
CGCTGCAGGA | 1.11
CGCTGCGGAC | 2.78
CGCTGCTGTA | 1.03
CGCTGTCCCC | 2.34
CGCTGTGCT | 1.12
CGCTTATCCG | 1
CGCTTCTCAA | 1.17
CGCTTGTTCC | 1.05
CGCTTTAAT | 1.05
CGGAAAGTAC | 1.38
CGGAACCAGA | 1.04
CGGAAGGAAC | 0.995
CGGAAGGTGC | 1.38
CGGAATGCCA | 0.964
CGGAATGTAC | 1.89
CGGAATTGAA | 1.03
CGGACATATC | 1.17
CGGACGTGGG | 1.01
CGGACTAAAG | 1.03
CGGACTATCA | 0.981
CGGAGAATCC | 1.01

Sequence | switch fluorescence ratio
CGGAGAGCTC | 1.12
CGGAGATCCT | 1.05
CGGAGGGTAG | 1.01
CGGAGGTAAT | 1.49
CGGAGGTC | 1.12
CGGAGGTTGT | 1.02
CGGAGTATA | 1.42
CGGAGTGTA | 1.05
CGGATAGCGC | 0.952
CGGATAGGGC | 1.01
CGGATCGGGA | 0.966
CGGATCTACG | 0.971
CGGATGATTC | 0.965
CGGATGCCGC | 1.13
CGGATTAGCC | 1.02
CGGCAAACGC | 1.44
CGGCAACGCT | 1.01
CGGCAACGTT | 0.955
CGGCAATCGC | 3.04
CGGCACTTGC | 1.07
CGGCACTTGG | 1.06
CGGCATCTTC | 1.01
CGGCATTTGA | 0.992
CGGCCGAAG | 0.998
CGGCCGGGCA | 1
CGGCCTAGGA | 1.01

Sequence | switch fluorescence ratio
CGGCCTCCTT | 1.05
CGGCGACCGG | 0.999
CGGCGACGCG | 1.02
CGGCGAGCAA | 2.24
CGGCGATCAC | 2.4
CGGCGATGAC | 2.15
CGGCGATTTC | 1.14
CGGCGGACTG | 0.958
CGGCGGATGC | 1.12
CGGCGGGAG | 1.01
CGGCGGGCAG | 0.932
CGGCGTGGTT | 0.927
CGGCTACA | 1.03
CGGCTGACGC | 1.02
CGGCTGAGG | 0.975
CGGCTGCACA | 1.75
CGGCTGCCGC | 1.05
CGGCTGGAAG | 0.992
CGGCTTCTAA | 0.953
